Measurements taken from the supplement of paper PMC12355420.
Counter-ions that a name gives are not always drawn. The list shows a part of the results. Rule as the data show it: active = 0.5 or less and inactive = the rest. Many values rest on one well or one pass, so single values are uncertain.

Legend:
Details in all cases: 50 µM; 24 h
[1] = test system: HeLa VPS33A reporter cells; experiment: relative cell viability (CellMask signal) vs DMSO (fraction of DMSO); higher = less cytotoxic;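 also: primary screen of an FDA-approved drug library in HeLa reporter cells in 96-well format, CellMask signal normalized to DMSO-treated wells set as 1, under 0.5 deemed highly cytotoxic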
[2] = test system: HeLa VPS33A R498W KI + HA-SDC1-FLAG; experiment: relative GAG core protein HA-SDC1 amount per cell number vs DMSO (fraction of DMSO); higher = more SDC1 (GAG core protein);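 also: HA-SDC1 level read out by In-Cell Western staining with an anti-HA antibody against the N-terminal tag, screening FDA-approved library drugs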
[3] = test system: HeLa VPS33A KO + NLuc-VPS33A R498W; experiment: relative mutant VPS33A R498W amount (NanoLuc luminescence) vs DMSO (fraction of DMSO); HeLa model of a glycosaminoglycan (GAG) storage disease; KI is knock-in and KO knock-out; SDC1 is syndecan 1; higher = higher mutant VPS33A level;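 also: screen of an FDA-approved drug library, NanoLuc luminescence read after lysing the treated cells, taken as a measure of mutant VPS33A protein stability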

Row | Structure (SMILES) | relative cell viability [1] | relative GAG core protein HA-SDC1 amount per cell number [2] | relative mutant VPS33A R498W amount [3]
1 | Oc1cccc(O)c1O [Pyrogallol] | 1.04 | inactive: 0.957 | 1.25
2 | NC(=O)NCCC[C@H](N)C(=O)O | 1.17 | inactive: 1.11 | 1.15
3 | O.O.O.O.O=C([O-])CC(O)(CC(=O)[O-])C(=O)[O-].[Li+].[Li+].[Li+] [Lithium Citrate] | 1.07 | inactive: 1.59 | 0.687
4 | N=C(N)N [Guanidine HCl] | 0.916 | inactive: 1.15 | 0.953
5 | O=C(O)CC(O)C(=O)O (stereo not given) [Malic acid] | 1.01 | inactive: 0.923 | 1.3
6 | N=C(N)NS(=O)(=O)c1ccc(N)cc1 [Sulfaguanidine] | 1.05 | inactive: 0.67 | 0.997
7 | CC(=O)N[C@H]1[C@H]([C@H](O)[C@H](O)CO)OC(O)(C(=O)O)C[C@@H]1O (stereo not given in full) [N-Acetylneuraminic acid] | 1.06 | inactive: 0.999 | 1.01
8 | COc1ccc(O)cc1 [Mequinol] | 0.99 | inactive: 0.937 | 1.1
9 | CCN1CC(CCN2CCOCC2)C(c2ccccc2)(c2ccccc2)C1=O (stereo not given) [Doxapram HCl] | 1.18 | inactive: 0.921 | 0.782
10 | C#C[C@]1(O)CC[C@H]2[C@@H]3CCc4cc(OC)ccc4[C@H]3CC[C@@]21C [Mestranol] | 1.15 | inactive: 1.31 | 1
11 | O=S(=O)(c1cccc2c(O)nccc12)N1CCCNCC1 [Hydroxyfasudil hydrochloride] | 1.42 | inactive: 0.919 | 0.854
12 | CNC[C@H](O)[C@@H](O)[C@H](O)[C@H](O)CO [Meglumine] | 1.01 | inactive: 0.884 | 1.19
13 | Cc1onc(-c2ccccc2)c1-c1ccc(S(N)(=O)=O)cc1 [Valdecoxib] | 0.893 | inactive: 0.864 | 1
14 | Cc1ccc(-c2ncc(Cl)cc2-c2ccc(S(C)(=O)=O)cc2)cn1 [Etoricoxib] | 1.09 | inactive: 0.933 | 0.707
15 | CC1(C)O[C@@H]2[C@@H](CO[C@@]3(COS(N)(=O)=O)OC(C)(C)O[C@@H]23)O1 [Topiramate] | 1.04 | inactive: 1.13 | 1.25
16 | Cn1cncc1[C@@](N)(c1ccc(Cl)cc1)c1ccc2c(c1)c(-c1cccc(Cl)c1)cc(=O)n2C [Tipifarnib (Zarnestra)] | 0.747 | active: 0.344 | 0.567
17 | CCOc1ccc(Cc2cc([C@@H]3O[C@H](CO)[C@@H](O)[C@H](O)[C@H]3O)ccc2Cl)cc1 [Dapagliflozin] | 1.08 | inactive: 1.12 | 0.741
18 | COc1c(C)c2c(c(O)c1C/C=C(\C)CCC(=O)O)C(=O)OC2 [Mycophenolic acid] | 0.986 | inactive: 0.97 | 2.09
19 | O=c1cc(-c2ccccc2)oc2cc(O)c(O)c(O)c12 [Baicalein] | 1.02 | inactive: 0.603 | 1.51
20 | OCc1ccccc1 [Benzyl alcohol] | 0.99 | inactive: 0.85 | 1.15
21 | Cc1c(Cl)cccc1Nc1ccccc1C(=O)O [Tolfenamic Acid] | 1.24 | inactive: 0.856 | 0.873
22 | C[C@@H](c1ncncc1F)[C@](O)(Cn1cncn1)c1ccc(F)cc1F [Voriconazole] | 1.01 | inactive: 1.38 | 1.3
23 | O=C(O)CCCN1CCC(O[C@@H](c2ccc(Cl)cc2)c2ccccn2)CC1 [Bepotastine Besilate] | 1.05 | inactive: 1.5 | 2.25
24 | COc1cc(C(=O)O)ccc1O [Vanillic acid] | 1.11 | inactive: 0.935 | 0.917
25 | Cc1nc(-c2ccc(OCC(C)C)c(C#N)c2)sc1C(=O)O [Febuxostat] | 1.12 | inactive: 0.653 | 1.11
26 | CCn1cc(C(=O)O)c(=O)c2cc(F)c(N3CCN(C)CC3)cc21 [Pefloxacin Mesylate Dihydrate] | 1.05 | inactive: 0.813 | 1.09
27 | C[C@H](CCC(=O)O)[C@H]1CC[C@H]2[C@@H]3C[C@H](O)[C@@H]4C[C@H](O)CC[C@]4(C)[C@H]3CC[C@]12C [Hyodeoxycholic acid] | 1.09 | inactive: 0.751 | 0.918
28 | C[C@H](CCC(=O)O)[C@H]1CC[C@H]2[C@@H]3CC[C@@H]4C[C@H](O)CC[C@]4(C)[C@H]3CC[C@]12C [Lithocholic Acid] | 1.12 | inactive: 1.01 | 1.17
29 | CCN1CCN(C(=O)N[C@@H](C(=O)N[C@@H]2C(=O)N3C(C(=O)O)=C(CSc4nnnn4C)CS[C@H]23)c2ccc(O)cc2)C(=O)C1=O [Cefoperazone] | 1.38 | inactive: 1.36 | 1.12
30 | O=C(O)Cc1ccccc1Nc1c(Cl)cccc1Cl [Diclofenac Diethylamine] | 1.06 | inactive: 0.824 | 0.956
